# Measured values reported in the supplement of paper PMC8728848.
# Some of the results follow.
# B1: PX9961J-bvu-499-24-499 (Bacteroides vulgatus) (protein)
# chain: LNTDPSTAVPSDDAIKNIDDAQVALNGIYRLASAHSYYGDNYLYYADCRGEDVQARINKGAGRRVSPYYFFDVTADDNFNITLVWNQPYKVIHQANSLIEKLDAGNAGNARPEEVARIKSEALAMRGLALFDLTRLFGMPYTLDNGASLGVPIEIQTTLEDHAPERNTVAQCYEQVLKDLNDALGGLTKEKHDAYMNYWSVKALLSRVYLYMNDNENALKCAEEVINDNGGIYRLFTHDEYPSVWGKDFNSESLFEFYFTMSEPSGGSGGEGAPMVYADNVKDWNNLILTKAYLDLLNEDPEDVRHVFPHLPENAVADTLPVAAKGQPKYLIKYPGKSGSVTDAVSTVNPQDNDLCILRLSEVYLNAAEAAFKIGNTEKALTYLNAIVTRANPAKSVTSADLSLERILKERRKELVGEGHAFFDYMRNGKSVDRSGGWHLTMPEDARVIAPSDPRVALPIPQTEIDANPNIVQNPR
# Columns and labels:
# Experiment in all cases: glycan array binding signal (z-score within array); higher = stronger binding
# Settings in all cases: glycan notation: IUPAC condensed, linker removed
# [1] = molecular target: Neu5Ac(a2-6)Gal(b1-4)GlcNAc(b1-3)Gal(b1-4)GlcNAc(b1-3)GalNAc
# Summary of the method: (§1)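 From the Consortium for Functional Glycomics database, 3228 arrays were curated, keeping only those whose protein sequence was available. Binding is given as a within-array Z-score averaged across arrays sharing a protein sequence and across linkers. Negative Z-scores can be read as non-binding.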
# [2] = molecular target: Neu5Ac(a2-6)Gal(b1-4)GlcNAc(b1-3)Gal(b1-4)GlcNAc(b1-3)[Neu5Ac(a2-6)Gal(b1-4)GlcNAc(b1-3)Gal(b1-4)GlcNAc(b1-6)]GalNAc
# Summary of the method: as §1
# [3] = molecular target: Neu5Ac(a2-6)Gal(b1-4)GlcNAc(b1-3)Gal(b1-4)GlcNAc(b1-6)[Gal(b1-3)]GalNAc
# Summary of the method: as §1
# [4] = molecular target: Neu5Ac(a2-6)Gal(b1-4)GlcNAc(b1-3)Gal(b1-4)[Fuc(a1-3)]GlcNAc(b1-3)Gal(b1-4)[Fuc(a1-3)]GlcNAc
# Summary of the method: as §1
# [5] = molecular target: Neu5Ac(a2-6)Gal(b1-4)GlcNAc(b1-3)GalNAc
# Summary of the method: as §1
# [6] = molecular target: Neu5Ac(a2-6)Gal(b1-4)GlcNAc(b1-3)[Neu5Ac(a2-6)Gal(b1-4)GlcNAc(b1-6)]GalNAc
# Summary of the method: as §1
# [7] = molecular target: Neu5Ac(a2-6)Gal(b1-4)GlcNAc(b1-6)GalNAc
# Summary of the method: as §1
# [8] = molecular target: Neu5Ac(a2-6)Gal(b1-4)GlcNAc(b1-6)[Gal(b1-3)GlcNAc(b1-3)]Gal(b1-4)Glc
# Summary of the method: as §1
# [9] = molecular target: Neu5Ac(a2-6)Gal(b1-4)GlcNAc(b1-6)[Gal(b1-3)]GalNAc
# Summary of the method: as §1
# [10] = molecular target: Neu5Ac(a2-6)Gal(b1-4)GlcNAc6S
# Summary of the method: as §1
# Neu5Ac(a2-6)GalNAc = molecular target: Neu5Ac(a2-6)GalNAc
# Summary of the method: as §1
# [11] = molecular target: Neu5Ac(a2-6)GalNAc(b1-4)GlcNAc
# Summary of the method: as §1
# [12] = molecular target: Neu5Ac(a2-6)GalNAc(b1-4)GlcNAc6S
# Summary of the method: as §1
# [13] = molecular target: Neu5Ac(a2-6)GlcNAc(b1-4)GlcNAc
# Summary of the method: as §1
# [14] = molecular target: Neu5Ac(a2-6)GlcNAc(b1-4)GlcNAc(b1-4)GlcNAc
# Summary of the method: as §1
# Neu5Ac(a2-8)Neu5Ac = molecular target: Neu5Ac(a2-8)Neu5Ac
# Summary of the method: as §1
# [15] = molecular target: Neu5Ac(a2-8)Neu5Ac(a2-3)Gal(b1-3)GalNAc(b1-4)[Neu5Ac(a2-3)]Gal(b1-4)Glc
# Summary of the method: as §1
# [16] = molecular target: Neu5Ac(a2-8)Neu5Ac(a2-3)Gal(b1-3)GalNAc(b1-4)[Neu5Ac(a2-8)Neu5Ac(a2-3)]Gal(b1-4)Glc
# Summary of the method: as §1
# [17] = molecular target: Neu5Ac(a2-8)Neu5Ac(a2-3)Gal(b1-4)Glc
# Summary of the method: as §1
# [18] = molecular target: Neu5Ac(a2-8)Neu5Ac(a2-3)Gal(b1-4)GlcNAc
# Summary of the method: as §1
# [19] = molecular target: Neu5Ac(a2-8)Neu5Ac(a2-3)[Gal(b1-3)GalNAc(b1-4)]Gal(b1-4)Glc
# Summary of the method: as §1
# [20] = molecular target: Neu5Ac(a2-8)Neu5Ac(a2-3)[GalNAc(b1-4)]Gal(b1-4)Glc
# Summary of the method: as §1
# [21] = molecular target: Neu5Ac(a2-8)Neu5Ac(a2-8)Neu5Ac
# Summary of the method: as §1
# [22] = molecular target: Neu5Ac(a2-8)Neu5Ac(a2-8)Neu5Ac(a2-3)Gal(b1-4)Glc
# Summary of the method: as §1
# [23] = molecular target: Neu5Ac(a2-8)Neu5Ac(a2-8)Neu5Ac(a2-3)[Gal(b1-3)GalNAc(b1-4)]Gal(b1-4)Glc
# Summary of the method: as §1
# [24] = molecular target: Neu5Ac(a2-8)Neu5Ac(a2-8)Neu5Ac(a2-3)[GalNAc(b1-4)]Gal(b1-4)Glc
# Summary of the method: as §1
# [25] = molecular target: Neu5Ac(a2-8)Neu5Ac(a2-8)Neu5Ac(a2-8)Neu5Ac(a2-3)[GalNAc(b1-4)]Gal(b1-4)Glc
# Summary of the method: as §1
# [26] = molecular target: Neu5Ac(a2-8)Neu5Gc(a2-3)Gal(b1-4)GlcNAc
# Summary of the method: as §1
# [27] = molecular target: Neu5Ac(b2-6)Gal(b1-4)GlcNAc
# Summary of the method: as §1
# Neu5Ac(b2-6)GalNAc = molecular target: Neu5Ac(b2-6)GalNAc
# Summary of the method: as §1
# [28] = molecular target: Neu5Ac9Ac(a2-3)Gal(b1-3)GlcNAc
# Summary of the method: as §1
# [29] = molecular target: Neu5Ac9Ac(a2-3)Gal(b1-4)GlcNAc
# Summary of the method: as §1
# [30] = molecular target: Neu5Ac9Ac(a2-6)Gal(b1-4)GlcNAc
# Summary of the method: as §1
# [31] = molecular target: Neu5Gc(a2-3)Gal(b1-3)GlcNAc
# Summary of the method: as §1
# [32] = molecular target: Neu5Gc(a2-3)Gal(b1-3)[Fuc(a1-4)]GlcNAc
# Summary of the method: as §1
# Neu5Gc(a2-3)Gal(b1-4)Glc = molecular target: Neu5Gc(a2-3)Gal(b1-4)Glc
# Summary of the method: as §1
# [33] = molecular target: Neu5Gc(a2-3)Gal(b1-4)GlcNAc
# Summary of the method: as §1
# [34] = molecular target: Neu5Gc(a2-3)Gal(b1-4)GlcNAc(b1-3)Gal(b1-4)GlcNAc(b1-2)Man(a1-3)[Neu5Gc(a2-3)Gal(b1-4)GlcNAc(b1-3)Gal(b1-4)GlcNAc(b1-2)Man(a1-6)]Man(b1-4)GlcNAc(b1-4)GlcNAc
# Summary of the method: as §1
# [35] = molecular target: Neu5Gc(a2-3)Gal(b1-4)[Fuc(a1-3)]GlcNAc
# Summary of the method: as §1
# [36] = molecular target: Neu5Gc(a2-6)Gal(b1-4)GlcNAc
# Summary of the method: as §1
# Neu5Gc(a2-6)GalNAc = molecular target: Neu5Gc(a2-6)GalNAc
# Summary of the method: as §1
# [37] = molecular target: Neu5Gc(a2-8)Neu5Ac(a2-3)Gal(b1-4)GlcNAc
# Summary of the method: as §1
# [38] = molecular target: Neu5Gc(a2-8)Neu5Gc(a2-3)Gal(b1-4)GlcNAc
# Summary of the method: as §1
# [39] = molecular target: Neu5Gc(a2-8)Neu5Gc(a2-3)Gal(b1-4)GlcNAc(b1-3)Gal(b1-4)GlcNAc
# Summary of the method: as §1
# [40] = molecular target: Neu5Gc(a2-8)Neu5Gc(a2-6)Gal(b1-4)GlcNAc
# Summary of the method: as §1
# [41] = molecular target: Neu5Gc(b2-6)Gal(b1-4)GlcNAc
# Summary of the method: as §1
binder,measurement,setting,value
B1,glycan array binding signal (z-score),[1],-0.029
same,glycan array binding signal (z-score),[2],0.394
same,glycan array binding signal (z-score),[3],-0.563
same,glycan array binding signal (z-score),[4],-0.487
same,glycan array binding signal (z-score),[5],-0.651
same,glycan array binding signal (z-score),[6],-0.732
same,glycan array binding signal (z-score),[7],-0.2
same,glycan array binding signal (z-score),[8],0.356
same,glycan array binding signal (z-score),[9],-0.078
same,glycan array binding signal (z-score),[10],0.228
same,glycan array binding signal (z-score),Neu5Ac(a2-6)GalNAc,0.219
same,glycan array binding signal (z-score),[11],-0.736
same,glycan array binding signal (z-score),[12],-0.294
same,glycan array binding signal (z-score),[13],-0.555
same,glycan array binding signal (z-score),[14],1.19
same,glycan array binding signal (z-score),Neu5Ac(a2-8)Neu5Ac,-0.25
same,glycan array binding signal (z-score),[15],0.578
same,glycan array binding signal (z-score),[16],-0.432
same,glycan array binding signal (z-score),[17],-0.744
same,glycan array binding signal (z-score),[18],-0.334
same,glycan array binding signal (z-score),[19],0.123
same,glycan array binding signal (z-score),[20],-0.134
same,glycan array binding signal (z-score),[21],-0.377
same,glycan array binding signal (z-score),[22],-0.046
same,glycan array binding signal (z-score),[23],0.142
same,glycan array binding signal (z-score),[24],-0.474
same,glycan array binding signal (z-score),[25],0.365
same,glycan array binding signal (z-score),[26],19
same,glycan array binding signal (z-score),[27],-0.261
same,glycan array binding signal (z-score),Neu5Ac(b2-6)GalNAc,0.53
same,glycan array binding signal (z-score),[28],-0.873
same,glycan array binding signal (z-score),[29],-0.319
same,glycan array binding signal (z-score),[30],-0.521
same,glycan array binding signal (z-score),[31],-0.438
same,glycan array binding signal (z-score),[32],-0.155
same,glycan array binding signal (z-score),Neu5Gc(a2-3)Gal(b1-4)Glc,-0.005
same,glycan array binding signal (z-score),[33],0.173
same,glycan array binding signal (z-score),[34],1.22
same,glycan array binding signal (z-score),[35],-0.163
same,glycan array binding signal (z-score),[36],0.325
same,glycan array binding signal (z-score),Neu5Gc(a2-6)GalNAc,-0.455
same,glycan array binding signal (z-score),[37],-0.553
same,glycan array binding signal (z-score),[38],-0.572
same,glycan array binding signal (z-score),[39],0.077
same,glycan array binding signal (z-score),[40],-0.005
same,glycan array binding signal (z-score),[41],0.577
